Out of some 48,000 compounds screened, about 1,200 (2.5%) were called active. About 2% were inconclusive and are not listed.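 Rule for the calls: active = activation of at least 60% and not above a set upper limit (about 1 call in 100 departs from these limits); inconclusive = activation of 40% to 60%, or above that upper limit; inactive = activation under 40%.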 Some of the results follow.

The target in this assay is Probable G-protein coupled receptor 32 (Homo sapiens) (UniProt O75388). The experiment in a line: qHTS for Agonists of Human Resolvin D1 Receptor DRV1. To be noted: CHO-K1 GPR32 beta-arrestin PathHunter luminescence, 90 min; at 76.9 µM; stronger effect = higher value; zero percent set by DMSO-only wells. An outline of the steps: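 Using DMSO wells as EC0, agonist-induced signal was taken as chemiluminescence from beta-Gal reconstituted upon beta-arrestin recruitment to GPR32 in CHO-K1 cells after 90 min compound treatment.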
UniProt O75388, sequence (O75388 whole entry, looked up): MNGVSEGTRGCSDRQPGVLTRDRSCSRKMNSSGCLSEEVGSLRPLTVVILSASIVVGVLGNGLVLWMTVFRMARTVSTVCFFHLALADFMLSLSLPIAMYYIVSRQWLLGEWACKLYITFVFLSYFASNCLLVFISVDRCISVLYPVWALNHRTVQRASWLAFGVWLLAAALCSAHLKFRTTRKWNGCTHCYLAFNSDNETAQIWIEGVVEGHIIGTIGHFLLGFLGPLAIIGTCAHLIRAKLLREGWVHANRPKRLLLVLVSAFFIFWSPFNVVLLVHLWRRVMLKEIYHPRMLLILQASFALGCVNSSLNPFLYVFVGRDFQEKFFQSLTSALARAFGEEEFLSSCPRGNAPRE
A general note: In qHTS, concentration-response curves come from the screen itself.
On to `COc1ccc(-c2nnn3c2nc(NCCc2ccc(OC)c(OC)c2)c2ccccc23)cc1`, for which the activation was inactive: 14.1%.
As to `Cc1nn2c(=O)cc(COc3ccc(/C=C(\C#N)C(=O)Nc4ccccc4C)cc3)nc2s1`, the activation was inactive: 3.54%.
As to `CCOC(=O)c1cccc(NC(=O)CCc2c(C)nn(-c3ccc(N4CCCCC4)nn3)c2C)c1`, the activation was inactive: -6.39%.
As to `Cc1ccc(Sc2c(C)nn(C(C)(C)C)c2OC(=O)CC(C)C)cc1`, the activation is inactive: 17.8%.
Take `Cc1c(C(=O)OC2CCC(C)CC2)[nH]c2c1C(=O)CC(c1ccc(F)cc1)C2` (stereo not drawn): the activation is inactive: 0.448%.
To `COc1ccc(Cn2ccc3nc(C)c(C(=O)N4CCN(c5ccc(F)cc5)CC4)cc3c2=O)cc1` belongs inactive: -5.69%; to `Cc1ccccc1NC(=O)c1c(NC(=O)c2ccccc2F)sc2c1CCC(C)C2` (stereo not drawn), inactive: 6.83%.
For `CCCCN1C(=O)c2[nH]nc(-c3ccccc3O)c2C1c1ccc(OCc2ccccc2)c(OC)c1` (stereo not drawn), the activation was inactive: 4.58%.
Regarding `COc1ccccc1NC(=O)c1ncn(-c2ccccc2)n1`, the activation is inactive: -8.85%.
Regarding `CCOC(=O)c1[nH]c2c(c1Cc1ccccc1)C(=O)CC(c1ccc(C(C)(C)C)cc1)C2` (stereo not drawn), the activation was inactive: -18.6%.
As for `CCOC(=O)C1CCN(C(=O)c2cnn(-c3ccc(F)cc3)c2-n2cccc2)CC1`, the activation was inactive: -2.09%.
As for `CN(CC(=O)Nc1ccc(F)cc1F)S(=O)(=O)c1cccc2nsnc12`, the activation was inactive: 14.8%.
On to `CCN(CC)CCCNC(=O)c1sc2nc3n(c(=O)c2c1C)CCCCC3`, for which the activation is inactive: -14.1%.
Consider `COc1ccc(C(=O)Nc2nc3c(s2)Cc2c(Br)ccc(OC)c2-3)cc1OC`, for which the activation is inactive: 10.6%.
Take `Cc1cc(C)cc(N(CC(=O)Nc2c(C)cc(C)cc2C)S(=O)(=O)c2c(C)nn(C)c2C)c1`: the activation is inactive: 0%.
In the case of `CCN(CC)S(=O)(=O)c1cc(-c2ccc(=O)n(C(C)C(=O)Nc3cccc(C#N)c3)n2)ccc1C` (stereo not drawn), the activation is inactive: -3.92%.
With `CCc1ccc(NC(=O)CSc2nnc(CC)c(CC)n2)cc1`, the activation is inactive: -3.45%.
Turning to `Cc1ccc(Cn2c(CN3CCC(C(=O)O)CC3)cc3ccccc32)cc1`, the activation was inactive: -12.9%.
On to `CCOc1ccccc1NC(=O)CCS(=O)(=O)c1ccc2c(c1)oc(=O)n2C`, for which the activation was inactive: 11.2%.
As for `CC(C)NC(=O)C1CCCN(c2ncnc3onc(-c4ccc(F)cc4)c23)C1` (stereo not drawn), the activation is inactive: -4.45%.
On to `CCOc1cc(-c2nnc(SCC(=O)NC3CCCCC3)nc2-c2ccc(OC)c(OCC)c2)ccc1OC`, for which the activation was inactive: -17.4%.
Turning to `COc1ccc(CNC(=O)CCCn2ccc3cc(S(=O)(=O)N4CCCC4)ccc32)cc1`, the activation is inactive: -17.2%.
As to `COc1ccc2oc(-c3cccc(NC(=O)c4cc([N+](=O)[O-])ccc4N4CCOCC4)c3)nc2c1`, the activation was inactive: -11.7%.
To `CCOC(=O)C(C)Sc1nnc2cc(C)c3ccccc3n12` (stereo not drawn) belongs inactive: -15.3%; to `COc1cc(C2c3c(-c4c(C)cc(C)cc4O)n[nH]c3C(=O)N2Cc2ccco2)cc(OC)c1OC` (stereo not drawn), active: 64.9%.
On to `Cc1ccccc1CNC(=O)C1CCCCN1S(=O)(=O)c1ccc(F)cc1` (stereo not drawn), for which the activation was inactive: -9.96%.
To `O=[N+]([O-])c1ccc(S(=O)(=O)N2CCn3cccc3C2c2ccc(Br)cc2)cc1` (stereo not drawn) belongs inactive: -9.15%.
Then `COc1ccc(C(CNC(=O)c2oc3cc(Br)ccc3c2C)N2CCCCC2)cc1` (stereo not drawn), with inactive: -11.1%; and `COc1ccc(OC)c(-c2cc(C(=O)Nc3c(C)nn(Cc4ccc(C)cc4)c3C)no2)c1`, with inactive: 9.71%; and `COc1ccc(Nc2ncc3c(n2)CCN(Cc2sccc2C)C3)c(OC)c1`, with inactive: 24.9%.
To `COc1ccc2c(CNCCc3ccco3)c(C(=O)O)n(Cc3ccc(C)cc3)c2c1` belongs active: 89.4%; to `Cc1ccc(-n2ncc3c(NCCCN(C)C)ncnc32)cc1Cl`, inactive: 39.2%; to `O=C(Cn1ncc2c3ccccc3n(Cc3ccccc3)c2c1=O)NCc1ccccn1`, inactive: -13.7%.
For `Cc1ccc(NC(=O)c2c(C)oc3ccc(O)c(CN4CCN(Cc5ccccc5)CC4)c23)cc1`, the activation is inactive: -5.57%.
For the molecule `Cc1ccc(-n2nc(C(=O)N(C)c3ccc(C)c(C)c3)c3c4ccccc4n(C)c3c2=O)cc1`, the activation was inactive: -7.93%.
With `Cc1ccc(CN2CCC(CNC(=O)c3cnn(-c4ccc(C)cc4)c3C3CCN(C(=O)OC(C)(C)C)CC3)CC2)cc1`, the activation is inactive: -23.2%.
Take `CCOC(=O)CN1C(=O)N(c2ccc(C)c(C)c2)S(=O)(=O)c2ccccc21`: the activation is inactive: -6.92%.
Turning to `Cc1ccc(S(=O)(=O)N(CC(=O)Nc2cccnc2)c2cc(Cl)ccc2C)cc1`, the activation was inactive: 34.4%.
As for `CCOc1ccc(CNC(=O)C2CCCN(c3nn4cc(-c5ccc(OC)cc5)nc4s3)C2)cc1` (stereo not drawn), the activation is inactive: -6.12%.
On to `COc1ccc(NC(=O)CC2C(=O)N(c3ccccc3)C(=O)N2CCc2sccc2C)cc1` (stereo not drawn), for which the activation is inactive: -6.67%.
As for `Cc1cccc(NC(=O)CCCn2nc(C)c3c(C)n(-c4ccccc4)nc3c2=O)c1C`, the activation is inactive: -13.5%.
To `Cc1cc(=O)n(CC(=O)Nc2ccc(Cl)c(Cl)c2)c(-n2nc(C)cc2C)n1` belongs inactive: -1.12%; to `CN1C(=O)c2ccccc2Sc2ccc(NC(=O)Cc3ccc(Cl)cc3)cc21`, inactive: -10.6%.
To `Cc1cccc(N(C)S(=O)(=O)c2nnc(NC(=O)C(C)Oc3ccccc3)s2)c1` (stereo not drawn) belongs inactive: 0.769%; to `COC(=O)c1sccc1S(=O)(=O)N1CCN(c2cccc(C)c2)C(C)C1` (stereo not drawn), inactive: 10.1%; to `COc1ccc(OC)c(CCNC(=O)c2ccc3c(c2)N(Cc2ccccc2)CCS3)c1`, inactive: -22.6%.
To `CCOC(=O)c1cccc(NC(=O)C2COc3ccc(OC)cc3C2)c1` (stereo not drawn) belongs inactive: -22.7%; to `Cc1ccc(CCNC(=O)C2CC(=O)N(CCc3ccc(C)cc3)C2)cc1` (stereo not drawn), inactive: -8.83%.
In the case of `O=C(NCc1ccccc1)C1CCN(c2ncnc3c2nc2n3CCCCC2)CC1`, the activation was inactive: 3.74%.
Consider `Cc1ccc(-n2cc(-c3ccccc3)c3c(N4CCC(C)CC4)ncnc32)cc1Cl`, for which the activation was inactive: -2.79%.
As to `COc1ccc(C)cc1NC(=O)CSc1nc(=O)n(Cc2ccco2)c2c1CCC2`, the activation was inactive: -0.0524%.
Then `O=C(NCc1ccc(Cl)cc1)c1ccc2c(c1)nnn2C1CCCC1`, with inactive: 14.7%.
As for `CCCCc1ccc(NC(=O)Cn2cnc3c(oc4ccccc43)c2=O)cc1`, the activation was inactive: -0.697%.
For the molecule `Cc1nc2nc(NCc3ccccc3Cl)[nH]n2c(=O)c1Cc1ccccc1`, the activation was inactive: -2.86%.
With `O=C(Nc1ccccc1OCc1cc(=O)n2ccccc2n1)Nc1ccccc1C(F)(F)F`, the activation is inactive: -15.6%.
As to `CCOC(=O)c1cnc2c(C)cc(C)cc2c1NCCN1CCOCC1`, the activation was inactive: 20.5%.
As to `CCCSC1=NC2(CCN(C(=O)NC3CCCCC3)CC2)N=C1c1ccc(C)cc1`, the activation was inactive: 2.01%.
For the molecule `Cc1ccccc1NC(=O)CSc1nc2c(oc3ccccc32)c(=O)n1Cc1ccco1`, the activation was inactive: -11.2%.
Take `Cc1ccc(C)c(OCc2nc3ccccc3n2C)c1`: the activation is inactive: -6.85%.
For `CCOc1ccc(-c2cc3c(=O)n(Cc4nc(-c5ccc(OCC)c(OC)c5)oc4C)ccn3n2)cc1Cl`, the activation was inactive: -4.14%.
To `CCCCn1cc2c(c1-c1ccc(Br)cc1)c(=O)n(C)c(=O)n2C` belongs inactive: -27.2%.
Regarding `Cc1ccc2nc(CSc3nnc(NC(=O)C(C)C)s3)cc(=O)n2c1`, the activation is inactive: -0.729%.
Consider `Cc1cccc2c(=O)cc(CSc3ccccc3NC(=O)c3cccc(Cl)c3)[nH]c12`, for which the activation is inactive: 7.61%.
`CSc1ccc(C2c3c(-c4ccccc4O)n[nH]c3C(=O)N2Cc2ccncc2)cc1` (stereo not drawn): the activation is inactive: -22%.
For `COc1ccc(NCc2cc3ccc(OC)cc3n(CC(=O)Nc3ccc(C)c(C)c3)c2=O)cc1`, the activation is inactive: -41.6%.
Regarding `Cc1cccc(C(=O)NCCc2nc3ccccc3n2CCC(C)C)c1`, the activation was inactive: 47.2%.
As for `Cc1cccc(OCC(=O)Nc2c(C(=O)Nc3ccc(F)cc3)oc3ccccc23)c1`, the activation is inactive: -12.4%.
For the molecule `Cc1cccc(N2C(=O)CSC23C(=O)N(C)c2ccccc23)c1` (stereo not drawn), the activation is inactive: -7.01%.
Then `COc1cc(NC(=O)NCCc2c(C)nn(C)c2C)cc(OC)c1OC`, with inactive: -10.8%; and `CCCN1CCN(c2nnc(-n3cccc3C(=O)Nc3ccccc3C(F)(F)F)s2)CC1`, with inactive: -18.9%; and `CCc1ccc(-n2nc(C)c3c(C)cc(=O)n(CC(=O)Nc4cc(Cl)ccc4OC)c32)cc1`, with inactive: -0.615%.
For the molecule `CCOc1ccc(OCC)c(NC(=O)c2cnn(-c3ccc(F)cc3)c2-n2cccc2)c1`, the activation is inactive: -5.4%.
As for `O=c1c2sc3ccccc3c2n(Cc2cccc(Cl)c2)c(=O)n1Cc1ccccc1`, the activation is inactive: -1.56%.
In the case of `COc1ccc(S(=O)(=O)Nc2cccc(-c3ccc(N4CCCCCC4)nn3)c2)cc1OC`, the activation is inactive: -4.88%.
In the case of `CC(C)(C)OC(=O)N1CCC(c2c(C(=O)N3CCN(c4cccc(Cl)c4)CC3)cnn2-c2cccc(Cl)c2)CC1`, the activation is inactive: -20.8%.
As for `CC(=O)Nc1ccc(S(=O)(=O)NCCc2csc3nc(-c4ccc(Cl)cc4)nn23)cc1`, the activation is inactive: 34.6%.
In the case of `CCc1ccc(NC(=O)C2CCCN(S(=O)(=O)c3ccc4[nH]c(=O)ccc4c3)C2)cc1` (stereo not drawn), the activation was inactive: -7.45%.
Regarding `COc1cccc(C(c2sc3nc(-c4ccco4)nn3c2O)N2CCC(C)CC2)c1` (stereo not drawn), the activation was inactive: 3.87%.
To `O=C(CSc1ccnc(=O)[nH]1)NCc1ccc(F)cc1` belongs inactive: -14.8%; to `CCCn1c(=O)c2c(ncn2C)n(CCC)c1=O`, inactive: 4.89%; to `CCC1CN(C(=O)NCc2ccc(F)cc2)c2cc(C)ccc2O1` (stereo not drawn), inactive: -33.8%.
`CCOC(=O)C1CCN(C(=O)Cn2nc(C)n3c(cc4c(OC)cccc43)c2=O)CC1`: the activation is inactive: -3%.
To `CCOc1ccc2c(c1)c(=O)c(C(=O)c1ccc(CC)cc1)cn2CC(=O)Nc1ccc2c(c1)OCCO2` belongs inactive: 24.1%.
